Some of the results follow. Cleavage of a single-stranded DNA pool by Rep nickase domains was read by sequencing (1 h at 37 °C, 3 µM enzyme); the outer parts of the 90-letter strands are left off. Uncut reads are compared with the no-enzyme pool on a log2 scale; strong cutting gives strongly negative numbers. There is no active / inactive call. Counts are relative to all reads; uncut strands gain when others are lost, and binding without cutting may add a little.
Assays:
Test in all cases: uncleaved DNA left, log2 of reads against the no-enzyme library (log2 ratio); higher = less cleavage (more negative = more Rep cleavage of the k-mer); sequences stand for … in CTCGTCCG…ACCGGAGA
[1] = test system: T1, Rep nickase domain of Muscovy duck circovirus
T1 sequence (Rep 1-111, printed without the tag): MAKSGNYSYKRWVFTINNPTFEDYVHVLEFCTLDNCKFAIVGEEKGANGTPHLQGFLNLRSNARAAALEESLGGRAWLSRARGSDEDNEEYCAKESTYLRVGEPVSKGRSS
Method: (§1)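 A pool of 90-nt single-stranded DNAs with seven random bases just before the constant AC of the nick site (name = the seven bases) was cut by 3 µM recombinant His6-SUMO-tagged Rep nickase domain (300 nM DNA, 50 mM HEPES pH 8.0, 50 mM NaCl, 1 mM MnCl2, 1 h, 37 °C, three replicates). Uncut DNA was amplified and sequenced.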

[2] = test system: T2, Rep nickase domain of banana bunchy top virus
T2 sequence (Rep 1-94, printed without the tag): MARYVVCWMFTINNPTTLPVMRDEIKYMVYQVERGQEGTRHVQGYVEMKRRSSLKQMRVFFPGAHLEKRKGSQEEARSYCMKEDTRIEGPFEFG
Method: as §1

[3] = test system: T3, Rep nickase domain of cabbage leaf curl virus
T3 sequence (Rep 1-116, printed without the tag): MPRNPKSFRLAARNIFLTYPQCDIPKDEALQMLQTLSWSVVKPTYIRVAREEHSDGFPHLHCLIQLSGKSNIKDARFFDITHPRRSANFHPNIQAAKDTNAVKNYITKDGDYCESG
Method: as §1

[4] = test system: T4, Rep nickase domain of chickpea chlorotic dwarf virus
T4 sequence (Rep 1-124, printed without the tag): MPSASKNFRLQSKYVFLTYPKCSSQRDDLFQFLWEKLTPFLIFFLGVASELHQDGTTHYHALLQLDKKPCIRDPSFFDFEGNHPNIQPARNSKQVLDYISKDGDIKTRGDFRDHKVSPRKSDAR
Method: as §1

[5] = test system: T5, Rep nickase domain of faba bean necrotic yellows virus
T5 sequence (Rep 1-98, printed without the tag): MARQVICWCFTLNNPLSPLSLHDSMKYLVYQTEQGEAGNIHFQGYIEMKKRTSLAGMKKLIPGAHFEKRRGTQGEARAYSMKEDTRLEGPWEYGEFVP
Method: as §1

[6] = test system: T6, Rep nickase domain of maize striate mosaic virus
T6 sequence (Rep 1-117, printed without the tag): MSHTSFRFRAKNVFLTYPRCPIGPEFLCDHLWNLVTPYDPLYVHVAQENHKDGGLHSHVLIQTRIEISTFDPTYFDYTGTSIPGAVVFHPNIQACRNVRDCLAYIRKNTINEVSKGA
Method: as §1

[7] = test system: T7, Rep nickase domain of porcine circovirus 2
T7 sequence (Rep 2-116, printed without the tag): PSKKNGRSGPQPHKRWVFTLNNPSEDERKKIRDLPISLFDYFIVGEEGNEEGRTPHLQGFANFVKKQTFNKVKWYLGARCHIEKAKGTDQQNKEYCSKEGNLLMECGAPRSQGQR
Method: as §1

[8] = test system: T8, Rep nickase domain of tomato golden mosaic virus
T8 sequence (Rep 1-124, printed without the tag): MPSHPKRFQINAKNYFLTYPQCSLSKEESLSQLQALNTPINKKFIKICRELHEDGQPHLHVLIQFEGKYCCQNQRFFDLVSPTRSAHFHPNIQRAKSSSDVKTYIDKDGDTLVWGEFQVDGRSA
Method: as §1

[9] = test system: T9, Rep nickase domain of tomato yellow leaf curl virus
T9 sequence (Rep 1-136, printed without the tag): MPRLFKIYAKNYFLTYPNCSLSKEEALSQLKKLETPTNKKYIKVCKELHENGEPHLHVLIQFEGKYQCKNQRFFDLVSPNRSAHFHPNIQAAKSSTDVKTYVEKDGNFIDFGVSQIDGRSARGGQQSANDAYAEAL
Method: as §1

[10] = test system: T10, Rep nickase domain of wheat dwarf virus
T10 sequence (Rep 1-137, printed without the tag): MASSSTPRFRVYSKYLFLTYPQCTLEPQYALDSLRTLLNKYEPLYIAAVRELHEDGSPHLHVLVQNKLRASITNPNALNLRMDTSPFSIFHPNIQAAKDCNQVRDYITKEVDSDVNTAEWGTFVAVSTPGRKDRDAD
Method: as §1

| Sequence | uncleaved DNA left (log2) [1] | uncleaved DNA left (log2) [2] | uncleaved DNA left (log2) [3] | uncleaved DNA left (log2) [4] | uncleaved DNA left (log2) [5] | uncleaved DNA left (log2) [6] | uncleaved DNA left (log2) [7] | uncleaved DNA left (log2) [8] | uncleaved DNA left (log2) [9] | uncleaved DNA left (log2) [10] |
| --- | --- | --- | --- | --- | --- | --- | --- | --- | --- | --- |
| GTTGTTC | 0.132 | 0.0723 | 0.456 | 0.687 | 0.0922 | 1.56 | 0.0766 | 0.0771 | 0.134 | 0.0989 |
| ATCACTT | -0.0585 | -0.279 | -0.156 | -2.27 | 0.0157 | -0.451 | -0.568 | 0.0657 | -0.0772 | -0.0724 |
| CGGACCT | -0.0859 | -0.166 | 0.216 | 0.862 | -0.142 | 1.32 | 0.00217 | -0.219 | -0.181 | 0.0156 |
| AAGGGGA | 0.0284 | 0.0407 | 0.36 | 0.972 | -0.00268 | 1.11 | 0.0571 | 0.0144 | -0.148 | 0.0153 |
| TAAAAAC | 0.00215 | -0.0997 | -0.614 | -2.34 | 0.0224 | -0.83 | 0.165 | -0.0493 | -0.0768 | -0.219 |
| AGGTGCC | -0.0572 | -0.0403 | -0.0968 | 0.00347 | -0.169 | -0.495 | 0.0386 | -0.0767 | -0.0164 | -0.0649 |
| TTGATTA | -0.072 | -0.0593 | -0.0134 | -0.75 | 0.0783 | -0.142 | -0.164 | 0.0795 | 0.0491 | -0.0206 |
| CGAAACA | 0.0894 | 0.151 | -0.0181 | -1.46 | 0.0903 | -0.354 | -0.0686 | 0.197 | 0.223 | 0.142 |
| AGCATAC | 0.00813 | -0.00874 | -0.132 | -0.252 | 0.0282 | -0.299 | -0.0849 | 0.054 | -0.0938 | -0.0446 |
| AACACAG | -0.0738 | -0.0044 | -0.687 | -0.61 | -0.0442 | -1.16 | 0.186 | -0.0511 | -0.0212 | -0.0911 |
| GCAGGGG | 0.0205 | 0.0355 | 0.371 | 0.766 | -0.0234 | 0.367 | 0.248 | 0.103 | -0.0653 | 0.111 |
| CGGATAA | 0.0239 | 0.0588 | 0.183 | 0.808 | 0.00258 | 0.833 | 0.109 | 0.123 | 0.0133 | 0.0965 |
| ATCCCGG | 0.0905 | 0.0475 | 0.414 | 1.24 | 0.0469 | 1.15 | 0.0555 | 0.153 | -0.0314 | 0.109 |
| TGTGAAC | 0.00643 | 0.0929 | 0.365 | 0.701 | -0.0689 | 1.38 | 0.00644 | 0.0891 | 0.137 | 0.0216 |
| ACTCGCC | 0.0652 | 0.02 | -0.302 | -0.269 | 0.0665 | -0.721 | 0.126 | 0.0771 | -0.0396 | 0.00145 |

Source: the supplement of paper PMC7826260
